Laboratory results: PubChem BioAssay (NCATS)
This list was built around the results that the source calls inconclusive (neither active nor inactive); the mix of calls is not that of the screen. Potencies beside an inconclusive call are fits to weak or partial responses and may not hold up. Activity calls are given as the source filed them. Calls follow the shape of the dose curve; as a rule, active = well fitted curve in the direction sought with a large enough effect; inconclusive = small, poorly fitted or top-dose-only effect, or another doubt; inactive = no such curve, though single readings can be large; an effect the other way counts as inactive or inconclusive.

What was measured:
[1] = Viability qHTS for spleen associated tyrosine kinase inhibitor (SYKi) naive MV4-11 cells (AID 1963823); conditions: MV4-11 AML viability, CellTiter-Glo luminescence, 72 h; viability (% of control): at 45 µM (top of the series); also: nearly all actives have a fitted effect of over 40% in size
Method in brief: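 Read-out: CellTiter-Glo luminescence. Exposure: 72 hr, 37 C, 5% CO2, 95% humidity. Cells: MV4-11 without SYK inhibitor history, 500/well, qHTS format.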

[2] = Cellular viability qHTS for adrenocortical cancer (ACC) cell line SW-13 (AID 1963989); conditions: SW-13 ACC cells viability, CellTiter-Glo, 48 h; activity (max response): active compounds read low; also: nearly all actives have a fitted effect of over 65% in size;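 as to activity (max response): cells grown in serum-free medium with ITS supplement; % is scaled to controls: 0 for no effect and ±100 for the full control effect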
Method in brief: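 Compound titrations (up to 46 uM final, in DMSO) were applied to SW-13 cells for 48 h at 37C/5% CO2. Reading used CellTiter-Glo after 20 min at room temperature; fitted curves yielded IC50 and efficacy.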

[3] = Cellular viability qHTS for adrenocortical cancer (ACC) cell line NCI-H295R (AID 1963990); conditions: CellTiter-Glo ATP luminescence, 48 h; activity change, negative = viability loss: at 46.1 µM (top of the series); also: nearly all actives have a fitted effect of over 60% in size
Method in brief: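 Readout: CellTiter-Glo luminescence, 20 min RT. Exposure: 48 h, 37C/5% CO2. Cells: NCI-H295R, ITS-DMEM serum-free. Range: up to 46 uM. Analysis: 4PL fit, IC50 plus efficacy.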
Potency is read from the fitted curve at half-maximal effect; tags tell the direction and shape of the fitted curve.

For `NC(=O)c1cccc2c(NC(CN3CCC3)c3ccc(Cl)c(C(F)(F)F)c3)ncnc12` (stereo not drawn), the Potency [1] was active: 1.48 µM, the Potency [2] was active: 14.1 µM and the Potency [3] was inconclusive: 1.26 µM [cytotoxic, full curve, poor fit].
In the case of `CCCCCCCCCCCCCCCCCC(=O)O`, the Potency [1] is reported as inconclusive: 21.1 µM [cytotoxic, single point] and the activity (max response) [2] is reported as inactive: 18.1%.
For `COc1cc(N2CCN(C)CC2)ccc1Nc1ncc2c(n1)N(C)c1ccccc1C(=O)N2C`, the Potency [1] was active: 0.934 µM and the Potency [2] was active: 15.8 µM.
For `NC1=NCC2c3ccccc3Cc3ccccc3N12` (stereo not drawn), the Potency [1] was inconclusive: 29.9 µM [cytotoxic, single point] and the Potency [2] was inconclusive: 18.4 µM [cytotoxic, single point].
In the case of `Cc1ccc(NC(=O)Nc2nnc(Sc3ncnc4cc(OCCCN5CCOCC5)ccc34)s2)cc1`, the Potency [1] is reported as active: 0.0148 µM, the activity (max response) [2] is reported as inactive: -9.58% and the Potency [3] is reported as inconclusive: 10 µM [cytotoxic, full curve, poor fit].
For `CC(C)(C)S(=O)(=O)c1ccc2nccc(Nc3n[nH]c4ccc(F)cc34)c2c1`, the Potency [1] was active: 7.42 µM, the Potency [2] was inconclusive: 35.5 µM [cytotoxic, partial curve, poor fit] and the Potency [3] was inconclusive: 35.5 µM [cytotoxic, single point].
With `O=C(Nc1cnccc1Cl)N1CCN(Cc2ccc3c(c2)OC(F)(F)O3)CC1` the Potency [1] was inconclusive: 4.68 µM [cytotoxic, full curve], the Potency [2] was inconclusive: 8.91 µM [cytotoxic, partial curve] and the Potency [3] was inconclusive: 10 µM [cytotoxic, partial curve].
